Results as given in the supplement of paper PMC12217912.
The other results are listed elsewhere or left out. Sequences were assembled here from the parent chain. Inactive controls read about 0.05.

B1: TEV protease; numbered along this chain (parent)
chain: MGESLFKGPRDYNPISSSICHLTNESDGHTTSLYGIGFGPFIITNKHLFRRNNGTLVVQSLHGVFKVKDTTTLQQHLVDGRDMIIIRMPKDFPPFPQKLKFREPQREERICLVTTNFQTKSMSSMVSDTSCTFPSGDGIFWKHWIQTKDGQCGSPLVSTRDGFIVGIHSASNFTNTNNYFTSVPKNFMELLTNQEAQQWVSGWRLNADSVLWGGHKVFMVKPEEPFQPVKEATQL

Variants of: B1
Assay: raw area under fraction-flipped curve 0-4 h after induction (AUC4h, not background-subtracted), DNA-recorder readout of cleavage of the substrate (dimensionless); higher = more cleavage of the substrate by the protease variant
Conditions: temperature: 34 °C; time window: 0-4 h after rhamnose induction
Experimental: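 In vivo DNA recorder in E. coli TOP10(DE3) ΔrhaA at 34 °C. Each TEVp single-site mutant (parent TEVp 0) is paired with a single-site variant of the 7-mer TEVs (canonical ENLYFQ|S). The substrate sits between flexible linkers in a Bxb1-sfGFP-TEVs-SsrA fusion, so cleavage stabilises Bxb1 and speeds flipping of a recombination array, read by NGS. The value is the raw area under the fraction-flipped curve over 0-4 h after rhamnose induction (AUC4h), with ≥20 reads per time point. It is not background-subtracted; inactive controls average about 0.047.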
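Note: Bxb1 expression induced with 0.2% (w/v) L-rhamnose at OD600 near 0.5, cultures sampled hourly, flipped fraction per protease–substrate barcode pair counted by paired-end Illumina sequencing.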

| Variant | area with substrate ENLYFAS | area with substrate ENLYFCS | area with substrate ENLYFDS | area with substrate ENLYFES | area with substrate ENLYFFS | area with substrate ENLYFHS | area with substrate ENLYFIS | area with substrate ENLYFKS | area with substrate ENLYFLS | area with substrate ENLYFPS | area with substrate ENLYFRS | area with substrate ENLYFSS | area with substrate ENLYFTS | area with substrate ENLYFVS | area with substrate ENLYFWS | area with substrate ENLYFGS | area with substrate ENLYFMS | area with substrate ENLYFNS | area with substrate ENLYFYS |
| --- | --- | --- | --- | --- | --- | --- | --- | --- | --- | --- | --- | --- | --- | --- | --- | --- | --- | --- | --- |
| T147E | 0.0555 | 0.0681 | 0.0576 | 0.0612 | 0.0639 | 0.0743 | 0.0583 | 0.0527 | 0.0673 | 0.0623 | 0.0624 | 0.0747 | 0.0591 | 0.0465 | 0.048 | – | – | – | – |
| T147N | 0.0633 | 0.0589 | 0.0575 | 0.0577 | 0.0927 | 0.0566 | 0.0616 | 0.0582 | 0.0869 | 0.0635 | 0.0616 | 0.0618 | 0.0573 | 0.0559 | – | 0.059 | 0.059 | 0.0611 | 0.0711 |
| K148G | 0.0695 | 0.0589 | – | 0.0734 | 0.0561 | 0.0702 | 0.0566 | – | – | 0.0501 | 0.0588 | 0.0391 | – | 0.0555 | 0.0541 | 0.0642 | 0.0785 | 0.0548 | 0.0995 |
| G150K | 0.0598 | – | 0.0559 | 0.061 | 0.0641 | – | 0.0549 | 0.0619 | 0.0471 | 0.0508 | 0.0543 | 0.0559 | 0.0544 | 0.0683 | – | – | 0.063 | – | 0.0519 |
| G150R | 0.0611 | – | – | 0.0556 | 0.0704 | 0.0651 | 0.0574 | 0.0576 | 0.0597 | 0.0651 | 0.0502 | 0.061 | 0.0595 | – | 0.0474 | 0.0513 | 0.0621 | 0.0721 | 0.0565 |
| C152S | 0.0504 | 0.0597 | – | 0.0626 | – | – | 0.0464 | – | – | 0.0562 | 0.061 | 0.0519 | 0.0613 | 0.0361 | – | 0.0598 | 0.0536 | 0.0531 | – |
| P155A | 0.0519 | 0.0592 | – | 0.0791 | 0.0656 | 0.0494 | 0.0566 | 0.0607 | 0.0558 | 0.0642 | – | 0.0857 | – | 0.0683 | 0.0536 | – | 0.0673 | 0.0567 | 0.0547 |
| P155L | 0.0566 | 0.0464 | 0.0521 | 0.0496 | 0.0633 | 0.0492 | 0.0558 | 0.0527 | 0.0532 | 0.049 | 0.0533 | 0.059 | 0.08 | 0.0435 | 0.055 | 0.0492 | 0.0167 | 0.0596 | 0.0497 |
| P155S | 0.0499 | 0.0673 | 0.0586 | 0.0389 | 0.0678 | 0.0526 | 0.0501 | 0.0542 | 0.0617 | 0.0525 | 0.046 | 0.0633 | 0.0733 | 0.0585 | 0.0628 | – | 0.0569 | 0.0672 | 0.0481 |
| P155W | 0.0609 | 0.0433 | 0.0424 | 0.0547 | 0.0605 | 0.0637 | 0.051 | 0.0621 | – | 0.0521 | 0.0567 | 0.0602 | 0.0511 | 0.0545 | 0.0493 | 0.0544 | 0.0526 | 0.0573 | 0.0549 |
| L156W | 0.0564 | 0.0521 | 0.0547 | 0.0662 | 0.0692 | 0.0612 | 0.0627 | 0.0474 | 0.0569 | 0.0494 | 0.0637 | 0.0435 | 0.0681 | 0.0629 | – | 0.0643 | 0.0631 | 0.0564 | 0.061 |
